# Data: PubChem BioAssay (NCATS)
# Inconclusive means that the source gave no clear call. Such entries were picked first, then a sample of the others. No potency is given beside an inconclusive call; the fits are too rough. Calls of active or inactive are those of the source. The call rests on the fitted dose curve; in most records, active means well fitted curve in the direction sought with a large enough effect; inconclusive means small, poorly fitted or top-dose-only effect, or another doubt; inactive means no such curve, though single readings can be large; an effect the other way counts as inactive or inconclusive.
# Legend:
# [1] = qHTS of pediatric cancer cell lines to identify multiple opportunities for drug repurposing: Primary screen for Saos-2 cells (AID 1347097); conditions: Saos-2 viability, CellTiter-Glo ATP luminescence, 48 h; activity change, negative = cytotoxic: at 46 µM (top of the series); further: nearly all actives have a fitted effect of over 40% in size
# Outline: (§1)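 Cells plated at 500-1,000/well in growth medium, compounds added after 5 h. MIPE tested at 11 points (from 0.78 nM), NPC at 8 points (from 0.59 nM). CellTiter-Glo luminescence after 48 h; concentration-response curves from primary screen.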
# [2] = qHTS of pediatric cancer cell lines to identify multiple opportunities for drug repurposing: Primary screen for SK-N-SH cells (AID 1347098); conditions: SK-N-SH viability, CellTiter-Glo luminescence, 48 h; activity change, negative = cytotoxic: at 57 µM (top of the series); further: nearly all actives have a fitted effect of over 65% in size
# Outline: (§2)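 Cells (500-1,000/well) rested 5 h, then received compounds for 48 h; metabolically active cells were measured by CellTiter-Glo luminescence. Final concentrations spanned up to 46 µM (MIPE, 11-point) or 0.59 nM-46 µM (NPC, 8-point) in primary screens, 11-point in follow-ups.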
# [3] = qHTS of pediatric cancer cell lines to identify multiple opportunities for drug repurposing: Primary screen for NB1643 cells (AID 1347099); further: nearly all actives have a fitted effect of over 50% in size
# Outline: as §1
# [4] = qHTS of pediatric cancer cell lines to identify multiple opportunities for drug repurposing: Primary screen for LAN-5 cells (AID 1347100); conditions: LAN-5 neuroblastoma viability, CellTiter-Glo luminescence, 48 h; activity change, negative = cytotoxic: at 46 µM (top of the series)
# Outline: as §2
# [5] = qHTS of pediatric cancer cell lines to identify multiple opportunities for drug repurposing: Primary screen for Rh18 cells (AID 1347102); further: nearly all actives have a fitted effect of over 65% in size
# Outline: as §2
# [6] = qHTS of pediatric cancer cell lines to identify multiple opportunities for drug repurposing: Primary screen for OHS-50 cells (AID 1347103); further: nearly all actives have a fitted effect of over 40% in size
# Outline: as §2
# [7] = qHTS of pediatric cancer cell lines to identify multiple opportunities for drug repurposing: Primary screen for BT-12 cells (AID 1347101); further: nearly all actives have a fitted effect of over 25% in size
# Outline: as §2
# [8] = qHTS of pediatric cancer cell lines to identify multiple opportunities for drug repurposing: Primary screen for RD cells (AID 1347104); further: nearly all actives have a fitted effect of over 55% in size
# Outline: as §1
# [9] = qHTS of pediatric cancer cell lines to identify multiple opportunities for drug repurposing: Primary screen for U-2 OS cells (AID 1347096); further: nearly all actives have a fitted effect of over 50% in size
# Outline: as §2
# Potency means the concentration at half of the fitted maximal effect; tags describe the fitted curve by direction and shape.
structure (smiles),measurement,setting,value
CC#CCn1c(N2CCC[C@@H](N)C2)nc2c1c(=O)n(Cc1nc(C)c3ccccc3n1)c(=O)n2C,Potency,[1],"inconclusive [cytotoxic, partial curve]"
same,Potency,[2],"inconclusive [cytotoxic, partial curve]"
same,Potency,[3],"inconclusive [cytotoxic, partial curve]"
CC(C)Nc1cc(C(F)(F)F)cc2nc(NC(=O)c3cccnc3)nn12,Potency,[1],"inconclusive [cytotoxic, partial curve]"
same,Potency,[2],"inconclusive [cytotoxic, single point]"
same,Potency,[3],"inconclusive [cytotoxic, partial curve, poor fit]"
COc1nccc(-c2c(-c3ccc(F)cc3)ncn2C2CCC(O)CC2)n1 (configuration not stated),Potency,[1],"inconclusive [cytotoxic, partial curve]"
CC(=O)OCC(=O)[C@@]12N=C(C)O[C@H]1C[C@H]1[C@@H]3CCC4=CC(=O)C=C[C@]4(C)[C@@H]3[C@@H](O)C[C@@]12C,Potency,[1],inactive
CCn1c(C(=O)N(C2CC2)C2CC2)cc2c3c(ncn3C)c(Nc3cc(C)n(C)n3)nc21,Potency,[1],"inconclusive [cytotoxic, partial curve]"
same,Potency,[2],"inconclusive [cytotoxic, partial curve]"
same,Potency,[3],"inconclusive [cytotoxic, partial curve]"
same,Potency,[4],"inconclusive [cytotoxic, full curve]"
same,Potency,[5],"inconclusive [cytotoxic, single point]"
same,Potency,[6],"inconclusive [cytotoxic, single point]"
NC(=O)c1cnc(-c2ccc(C3(N)CCC3)cc2)c(-c2ccccc2)c1,Potency,[1],"inconclusive [cytotoxic, partial curve]"
same,Potency,[2],"inconclusive [cytotoxic, single point]"
same,Potency,[3],"inconclusive [cytotoxic, partial curve]"
same,Potency,[4],"inconclusive [cytotoxic, partial curve, poor fit]"
same,Potency,[7],"inconclusive [cytotoxic, partial curve, poor fit]"
same,Potency,[6],active: 2.73 µM
same,Potency,[8],"inconclusive [cytotoxic, single point]"
COc1cc(O)c2c(c1)C(=O)c1cc(C)cc(O)c1C2=O,Potency,[1],"inconclusive [cytotoxic, partial curve]"
CC(=O)OCC(=O)[C@@]1(O)[C@H](C)C[C@H]2[C@@H]3C=C(C)C4=Cc5c(cnn5-c5ccccc5)C[C@]4(C)[C@@H]3[C@@H](O)C[C@@]21C,Potency,[9],active: 18.7 µM
same,Potency,[4],"inconclusive [cytotoxic, single point]"
same,Potency,[5],active: 13.2 µM
O=c1cc(-c2cccc3c2Sc2ccccc2S3)oc(N2CCOCC2)c1,Potency,[1],"inconclusive [cytotoxic, partial curve]"
same,Potency,[2],"inconclusive [cytotoxic, partial curve]"
same,Potency,[3],"inconclusive [cytotoxic, single point]"
same,Potency,[7],inactive
same,Potency,[6],"inconclusive [cytotoxic, partial curve]"
same,Potency,[8],"inconclusive [cytotoxic, partial curve]"
CCCCOc1ccc(C(=O)Nc2ccc(F)cc2F)cc1,Potency,[1],inactive
same,Potency,[2],"inconclusive [cytotoxic, partial curve]"
same,Potency,[3],"inconclusive [cytotoxic, single point]"
same,Potency,[7],inactive
CO[C@H]1C[C@@H]2CC[C@@H](C)[C@@](O)(O2)C(=O)C(=O)N2CCCC[C@@H]2C(=O)O[C@H]([C@H](C)C[C@@H]2CC[C@H](OC(=O)C(C)(CO)CO)[C@H](OC)C2)CC(=O)[C@H](C)C=C(C)[C@@H](O)[C@@H](OC)C(=O)[C@H](C)C[C@H](C)C=CC=CC=C1C,Potency,[9],"inconclusive [cytotoxic, single point]"
same,Potency,[3],active: 23.5 µM
same,Potency,[7],"inconclusive [cytotoxic, single point]"
same,Potency,[6],"inconclusive [cytotoxic, single point]"
same,Potency,[8],"inconclusive [cytotoxic, partial curve]"
Cc1cccc(Nc2ccncc2S(=O)(=O)NC(=O)NC(C)C)c1,Potency,[9],inactive
same,Potency,[8],inactive
